# Test results: PubChem BioAssay (NCATS)
# Inconclusive means that the source gave no clear call. Such entries were picked first, then a sample of the others. Potencies of inconclusive entries are left out as doubtful fits. The source made the active and inactive calls. The call rests on the fitted dose curve; in most records, active means well fitted curve in the direction sought with a large enough effect; inconclusive means small, poorly fitted or top-dose-only effect, or another doubt; inactive means no such curve, though single readings can be large; an effect the other way counts as inactive or inconclusive.
# Test system: not listed separately
# Test: Primary redox qHTS assay for identification of artifact compounds. (AID 1845223);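 on redox activity (% of DA3003): 0% = DMSO and 100% = reference compound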
# Conditions: Amplex Red/HRP redox cycling with DTT, fluorescence; redox activity (% of DA3003): at 53.8 µM (top of the series)
# How it was run: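 Redox-cycling detection via DTT (250 uM final) oxidation coupled to Amplex Red (25 uM)/HRP (250 mU/mL) in HBSS. 15 min preincubation plus 30 min after DTT, room temperature. Ex/Em 525/598 nm; 4-parameter Hill fit against DMSO and 10 uM DA3003.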
# Potency means the concentration at half of the fitted maximal effect; tags describe the fitted curve by direction and shape.
SMILES,Potency,redox activity (% of DA3003)
COc1ccc(NC(=O)c2ccc(-c3ccc(-c4nnc(C)o4)cc3C)cc2)cc1N1CCN(C)CC1,"inconclusive [activator, partial curve, poor fit]",
O=c1[nH]ccc2nc(-c3ccc(CN4CCC(c5nc(-c6ccccn6)n[nH]5)CC4)cc3)c(-c3ccccc3)cc12,"inconclusive [activator, single point]",
COc1ccc(C(=O)Nc2c(Cl)cncc2Cl)cc1OC1CCCC1,,inactive: -0.196%
CNc1nc(C)nc(N[C@H]2CCC[C@@H](C(=O)NCc3ccc(C#N)cc3C(F)(F)F)C2)n1,"inconclusive [activator, partial curve]",
CN(CCCOc1ccc(Cc2ccccc2)cc1)CCC(=O)O,"inconclusive [activator, partial curve, poor fit]",
CN(C)c1ccc(NC(=O)NS(=O)(=O)c2ccc(Cl)cc2)cc1,active: 3.36 µM,

# Test system: HEK293
# Test: Cytotoxic Profiling of Annotated Libraries Using Quantitative High-Throughput Screening (AID 1296008); further: nearly all actives have a fitted effect of over 60% in size; on max response: on the % scale 0 is the no-effect control and ±100 the full control effect
# Conditions: Five cell lines viability, CellTiter-Glo ATP luminescence, 48-72 h; max response: active compounds read low
# How it was run: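 Cytotoxicity was measured as CellTiter-Glo ATP luminescence, read after 10 min at room temperature. Compound treatment of the cells lasted 48 or 72 hr at 37 degrees Celsius in a qHTS format.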
SMILES,Potency,outcome,max response
O=C(NCCCn1ccnc1)c1cc(-c2ccco2)on1,"inconclusive [inhibitor, single point]",,
COC1(CC(C)C)NC(=O)C(O)(Cc2ccccc2)NC1=O (centres undefined),,inactive,
C=C1CCC2C(C)(C)CCCC2(C)C1CC/C(C)=C\CO (centres undefined),"inconclusive [inhibitor, single point]",,
CN(C)CC#CCCC(=O)C(O)(c1ccccc1)C1CCC1 (centres undefined),"inconclusive [inhibitor, single point]",,
NC(=O)c1cccc(-c2cc(OC(=O)NC3CCCCC3)ccc2O)c1,,,inactive: -86.9%
CC(NCCCc1cccc(C(F)(F)F)c1)c1cccc2ccccc12 (centres undefined),"inconclusive [inhibitor, single point]",,
COc1ccc([C@H](Cc2ccncc2)c2ccccc2)cc1OC1CCCC1,"inconclusive [inhibitor, single point]",,
C=C1CC2C(C)(CCC(=O)O)C(C(C)(C)O)CCC2(C)C2C(=O)OC(C)(C(=O)OC)C(=O)C12C (centres undefined),,,inactive: 3.75%
CC(O)(CC(=O)O)CC(=O)OCc1ccc(O[C@@H]2O[C@H](CO)[C@@H](O)[C@H](O)[C@H]2O)cc1 (some centres undefined),,,inactive: -1.35%
CCCCc1ccc(NS(=O)(=O)c2ccc(F)cc2)cc1,"inconclusive [inhibitor, single point]",,
CN1C(=O)CC(c2ccccc2)C1=O (centres undefined),,,inactive: -5.41%
C/C=C/c1cc(OC)c2c(c1)[C@@H](C)[C@@H](c1ccc(O)c(OC)c1)O2,,,inactive: -109%
CC(C)O[C@@H]1O[C@H](CO)[C@@H](O)[C@H](O)[C@H]1O,,,inactive: 1.2%
COc1ccc(NC(=O)c2ccc(-c3ccc(-c4nnc(C)o4)cc3C)cc2)cc1N1CCN(C)CC1,"inconclusive [inhibitor, partial curve]",,
OC[C@H]1O[C@@H](OCCc2ccccc2)[C@H](O[C@@H]2OC[C@@H](O)[C@H](O)[C@H]2O)[C@@H](O)[C@@H]1O,,,inactive: 4.26%
O=c1[nH]ccc2nc(-c3ccc(CN4CCC(c5nc(-c6ccccn6)n[nH]5)CC4)cc3)c(-c3ccccc3)cc12,active: 5.17 µM,,
O=C(NC/C=C/CN1CCN(c2cccc(Cl)c2Cl)CC1)c1ccc(-c2ccccn2)cc1,active: 13 µM,,
CC(=O)OC1C(OC(=O)c2ccccc2)C2C(C)(C)CCC(OC(C)=O)C2(C)C23CCC(C)(C2)C(=O)CC13 (centres undefined),"inconclusive [inhibitor, single point]",,
CC(=O)[C@H]1CC[C@H]2[C@@H]3C=CC4=CC(=O)CC[C@@]4(C)[C@@H]3CC[C@]12C,"inconclusive [inhibitor, single point]",,
CC(=O)O[C@H]1[C@@]2(O)C[C@H](C)[C@H](OC(=O)c3ccccc3)[C@@H]2[C@@H](OC(=O)CO)[C@]2(OC(C)=O)C[C@H]3C(=O)C(C)(C)C[C@@H]3[C@@]1(C)[C@H]2OC(C)=O,"inconclusive [inhibitor, single point]",,
COC(=O)[C@H](Cc1ccc([N+](=O)[O-])cc1)NC(=O)c1cccc2ccccc12,,inactive,
COc1ccc(C(=O)Nc2c(Cl)cncc2Cl)cc1OC1CCCC1,"inconclusive [inhibitor, single point]",,
C=CC(C)(C)c1[nH]c2ccccc2c1C[C@@H]1NC(=O)[C@H](C)NC1=O,"inconclusive [inhibitor, partial curve, poor fit]",,
